According to PubChem BioAssay AID624296 (National Center for Advancing Translational Sciences (NCATS), 2012):
Screen size: about 350,000 compounds; about 9,900 (2.8%) were called active. Inconclusive means that the source gave no clear call. Such entries were picked first, then a sample of the others. Calls come from the whole dose curve; as a rule, active = well fitted activation curve with a large enough effect; inconclusive = small, poorly fitted or top-dose-only effect; inactive = no such curve, though single readings can be large or run the other way. No potency is given beside an inconclusive call; the fits are too rough.

test: A quantitative high throughput screen for small molecules that induce DNA re-replication in MCF 10a normal breast cells.; note: nearly all actives have a fitted effect of over 50% in size; conditions: MCF 10A DNA re-replication, Hoechst nuclear intensity, 48 h; series mostly up to 46.1 µM
Potency is the fitted concentration of half-maximal effect; tags give direction and shape of the fitted curve.

Row | SMILES | Potency
1 | COc1ccc(NS(=O)(=O)c2cccc(Cl)c2Cl)cc1S(=O)(=O)N1CCCCC1 | inconclusive [activator, partial curve]
2 | Cc1cccc(C)c1OCCNC(=O)c1ccc2ccccc2n1 | inconclusive [activator, single point]
3 | COc1ccc(CC(=O)Nc2nc(C(C)(C)C)cs2)cc1 | inconclusive [activator, single point]
4 | CC(=O)Nc1ccc(S(=O)(=O)NCC(=O)OCC(=O)NC(=O)c2cccn2C)cc1 | inconclusive [activator, full curve, poor fit]
5 | COc1ccc(Cl)cc1-c1nc(-c2ccc(NC(=O)c3cccs3)cc2)no1 | inconclusive [activator, single point]
6 | Oc1c(C(Nc2nc3ccccc3s2)c2ccco2)ccc2cccnc12 (stereo not drawn) | inconclusive [activator, single point]
7 | O=C(Nc1ccccc1-c1nc2ccccc2[nH]1)c1ccc(S(=O)(=O)N2CCCCC2)cc1 | inconclusive [activator, single point]
8 | Cc1cccc(/C=N/NC(=O)C2CCCNC2=O)c1 (stereo not drawn) | inconclusive [activator, partial curve, poor fit]
9 | CC(C(=O)N1CCc2ccccc21)N1CCN(c2cccc(C(F)(F)F)c2)CC1 (stereo not drawn) | inactive
10 | O=C(NCc1ccc2c(c1)OCO2)C1CC(c2ccc(Cl)cc2)=NO1 (stereo not drawn) | inconclusive [activator, partial curve, poor fit]
11 | Cc1sc2ncnc(NCCCn3ccnc3)c2c1C | inconclusive [activator, single point]
12 | O=C1c2ccsc2SCCN1Cc1ccccc1 | inconclusive [activator, partial curve, poor fit]
13 | CCN(CC)C(=O)c1nc[nH]c1C(=O)N1CCc2ccccc2C1 | inconclusive [activator, partial curve, poor fit]
14 | O=C(NCCSSCCNC(=O)c1ccccc1)c1ccccc1 | inconclusive [activator, single point]
15 | CN(C)S(=O)(=O)c1cccc(NC(=O)CSc2nncn2-c2ccccc2)c1 | active: 0.651 µM
16 | S=c1[nH]nc(CSc2nc3ccccc3s2)n1C1CCCCC1 | inconclusive [activator, single point]
17 | CCOc1ccc(C(=O)OCCCN(C)C)cc1 | inconclusive [activator, full curve]
18 | Cc1ccc(NC(=O)[C@@H]2CCCN2S(=O)(=O)c2ccccc2F)cc1S(=O)(=O)N1CCOCC1 | inconclusive [activator, partial curve, poor fit]
